Consider 24 molecules from PubChem BioAssay AID463173 (ICCB-Longwood Screening Facility, Harvard Medical School, 2010).

Out of some 52,000 compounds screened, about 1,700 (3.3%) were called active. Cut-off read from the data, not from the text of the source: active = survival mostly below about 52% (no sharp cut-off); inactive = mostly above about 56%. The list shows a part of the results.

This assay relates to Wild type. As to the kind of experiment: S. aureus survival, RN4220 and DeltatarO strains – OD600, teichoic acid synthesis inhibitors, primary screen (AID 463173). Conditions: S. aureus RN4220 wild type/DeltatarO growth, OD600, 18 h, hits give low values, screened at 18.75 µg/mL (by protocol).
Take `Cc1cc(C)c(NC(=O)Cn2nnc(C(=O)NCc3cccs3)c2N)c(C)c1`: the survival is inactive: 75%.

On to `COc1ccc(-c2cn3nc(N4CCCC(C(=O)Nc5cc(Cl)ccc5OC)C4)sc3n2)cc1` (centres undefined), for which the survival was inactive: 69%.

With `CCOC(=O)c1cc2c(=O)n3ccccc3nc2n(Cc2ccco2)c1=NC(=O)c1ccc(OC)cc1`, the survival is inactive: 68%.

In the case of `CSc1ccc(CNC(=O)c2ccc3c(c2)N(C)C(=O)C2CCCCN32)cc1` (centres undefined), the survival was inactive: 83%.

Consider `CC(C)COc1ccc(C(=O)Nc2scc(-c3ccc(Br)cc3)c2C(=O)OC(C)C)cc1`, for which the survival was inactive: 76%.

Regarding `Cc1ccccc1OCc1ccc(-c2nc(C#N)c(N3CCCCC3)o2)o1`, the survival was inactive: 122%.

Turning to `COc1cc(NC(=O)Cn2c(=O)n(-c3ccccc3)c(=O)c3c4c(sc32)CCCC4)cc(OC)c1`, the survival was inactive: 94%.

As to `CCCCNC(=O)c1cnn2c(C)c(Cc3c(C)cc(C)cc3C)c(C)nc12`, the survival is inactive: 124%.

As to `COc1ccc(CC(=O)NCC(c2ccc(N(C)C)cc2)N2CCOCC2)cc1OC` (centres undefined), the survival is inactive: 81%.

Regarding `O=c1ccc2cc(S(=O)(=O)NCc3ccc(Cl)cc3)ccc2[nH]1`, the survival was inactive: 84%.

In the case of `O=C(NCc1ccccc1)c1cccc(N2CCCS2(=O)=O)c1`, the survival was inactive: 125%.

`Cc1nc2cccnc2n1C1CCN(C(=O)Nc2ccccc2C(F)(F)F)CC1`: the survival was inactive: 72%.

For the molecule `COc1cc(C)nc(Oc2ccc(OCCOc3ccccc3)nn2)n1`, the survival is inactive: 98%.

Consider `CNS(=O)(=O)c1cn(CC(=O)N2CCN(c3ccc(Cl)cc3)CC2)cc1S(=O)(=O)NC`, for which the survival is inactive: 124%.

Regarding `COc1ccc(C(=O)COC(=O)CCCC(=O)Nc2ccc(C(C)=O)cc2)cc1`, the survival is inactive: 72%.

Regarding `CCOc1ccc(-n2nc(CO)c(C(=O)NCC(c3ccccc3)c3ccccc3)n2)cc1`, the survival was inactive: 89%.

As to `COC(=O)c1scc(-c2ccc(C)cc2)c1S(=O)(=O)Nc1ccc(NC(C)=O)cc1`, the survival is inactive: 121%.

For the molecule `Cc1cc(C)c(NC(=O)COCc2cc(-c3cccs3)on2)c(C)c1`, the survival was inactive: 82%.

Turning to `COc1ccc(-c2cn3nc(SCC(=O)Nc4ccccc4F)ccc3n2)cc1`, the survival was inactive: 68%.

In the case of `CCc1cccc(N2C(=O)CSC23C(=O)N(Cc2ccccc2F)c2ccccc23)c1` (centres undefined), the survival is inactive: 83%.

As for `COc1ccc(-n2ncc(C(=O)NCc3ccc4c(c3)OCO4)c2C2CCN(C(=O)OC(C)(C)C)CC2)cc1`, the survival is inactive: 111%.

On to `O=C(CSc1nccn1Cc1ccc(F)cc1)NCc1ccccc1`, for which the survival is inactive: 72%.

In the case of `COc1ccc(S(=O)(=O)N(CC(=O)NCCSc2ccccc2)c2ccc(Cl)cc2)cc1`, the survival is inactive: 72%.

For `Cc1cccc(OCC(=O)Nc2cccc(C(=O)OCc3cc(=O)n4c(C)csc4n3)c2)c1`, the survival is active: -6%.
